Test results published in publication PMC12136788.
The other results are listed elsewhere or left out.

B1: chr4:108667705:108667793:+|3pUTR|ENSG00000198856|msi1_unk|FALSE|overlapping (ssRNA)
RNA: GGGAGUUCUACAGUCCGACGAUCUCUGGACAGUUGAUCAGCUUUACCUAUGGUGCUUUGCCUUUAACUAGAGUGUGUGAUGGUAGAUUAUUUCAGAUAUGUAUGUAAAACUGUUUCCUGAACAAUAAGAUGUAUGAACGGAGCCAACAGAGGAUUGAGCAUCA
B2: chr5:113014749:113014850:+|3pUTR|ENSG00000172795|msi1|FALSE|unique (ssRNA)
RNA: GGGAGUUCUACAGUCCGACGAUCUAAAAAUCCUUUUUUACAGUGGUAUCCACAAAAUACUUCUCUGCUUAUAAAUGUUAUUGUAGAAAUCUUUAUUCUGUGUAGGUAGCCUAUUUAAUUGGGUUCCACUGAACCUCAUGGGACCAACAGAGGAUUGAGCAUCA
B3: chr1:66374421:66374522:+|3pUTR|ENSG00000184588|msi1|FALSE|bound_elsewhere (ssRNA)
RNA: GGGAGUUCUACAGUCCGACGAUCACUGCAUUGUUUCAGGUGGACAUUUUAUCAUUUUCAAAUGUUUCUCACAAUGUAUGUUAUAGUAUUAUUAUUAUAUAUUGUGUUCAAAUGCAUUCUAAAGAGACUUUUAUAUGAGGUGAACAACAGAGGAUUGAGCAUCA
B4: chr7:135927258:135927359:-|3pUTR|ENSG00000105887|msi1_unk|FALSE|overlapping (ssRNA)
RNA: GGGAGUUCUACAGUCCGACGAUCCAGCUUCAGACUGUUAUCUAUAGGCUUAUCGUUCAAAUACAGCACUUGAAUAUCCCAAGUAGUUCUUCUACGCAUAGCUCACCUUUCUAAACCCAGUUAAGCAUGGAAGAGAGGUAGUAGCAACAGAGGAUUGAGCAUCA
B5: chr18:35263486:35263657:-|CDS|ENSG00000186814|control|control|control (ssRNA)
RNA: GGGAGUUCUACAGUCCGACGAUCGGAAAUGACAUCCACAGGAGCACUGAAGUCUCUGUCUCUGAAUAGCCCGGUGCAGCCCUUAGAGAACCAGUGCAAGACUGAGACUCAGGAGUCCCAGGCUUUCCAGGAGAGAGGUGAGAACAACAGAGGAUUGAGCAUCA
B6: chr3:100713726:100713879:+|CDS|ENSG00000114354|unk|total|mutant (ssRNA)
RNA: GGGAGUUCUACAGUCCGACGAUCACUUGGGGAGGAUAUUCGGCGAAUUCCUAUUCAUAAUGAAGAUAUUACUUAUGAUGAAUCCGUGCUAAUGAUGCAACGAGUUUUCAGAGGAAAACUUCUGAGUAAUGAUGAAGUAACAAUCAACAGAGGAUUGAGCAUCA
B7: chr1:32195301:32195402:+|3pUTR|ENSG00000084652|msi1|FALSE|unique (ssRNA)
RNA: GGGAGUUCUACAGUCCGACGAUCUGACCUGGCUGGCAUCUGGCACUUGCAAUUUUGGAUUUUGUGGGUCAGUUUUACGUACAUAGGGCAUUUUGCAAGGCCUUGCAAAUGCAUUUAUACCUGUAAGUGUACAGUGGGCUUGCACAACAGAGGAUUGAGCAUCA
B8: ENSG00000107863:be:win_4851|CDS|ENSG00000107863|bound_else_gene|NA|bound_elsewhere_windowed (ssRNA)
RNA: GGGAGUUCUACAGUCCGACGAUCCGAGGCAGAUGACGAGAGAAGCGAACUCAUCAGUGAAGGGCGGCCUGUGGAAACCGACAGCGAGAGCGAGUUUCCCGUGUUCCCCACAGCCUUGACUUCAGAGAGGCUUUUCCGAGGAAACAACAGAGGAUUGAGCAUCA
B9: chr10:32033860:32033975:-|CDS|ENSG00000170759|unk|FALSE|unique (ssRNA)
RNA: GGGAGUUCUACAGUCCGACGAUCCACAGUGGAUAAAGAUAUUACUCUUACCAAUGAUAAACCAGCAACCGCAAUUGGAGUUAUAGGAAAUUUUACUGAUGCUGAAAGAAGAAAGUGUGAAGAAGAAAUUGCUAAAUUAUACAACAACAGAGGAUUGAGCAUCA
B10: chr19:13095865:13096029:+|3pUTR|ENSG00000008441|msi1|FALSE|unique (ssRNA)
RNA: GGGAGUUCUACAGUCCGACGAUCCCGCCCCCCACGUGGCCACUUUUCUCUGGAUUUUAGCUGUAAUGUCUUUACUCUUUAUUUAGGGGUGGGGCAUUCAUUGUUUGGGUCUUUUGCUGUUGGAAUGGGAACUCCUCCUCCAUUCAACAGAGGAUUGAGCAUCA
B11: chr1:6592219:6592320:-|3pUTR|ENSG00000162413|unk|FALSE|unique (ssRNA)
RNA: GGGAGUUCUACAGUCCGACGAUCCCCAAAGUAGCCUUGGCUUGAGUUUUUGUCCUUGCCUCCUUUUUAGAGAAGAGGGCAUUUAGACUGCAUUUUCCUGGUUAAAGAAGGUUAAAGCAAAUGUUUAUUGCCUUUUCUAGUGAACAACAGAGGAUUGAGCAUCA
B12: chr3:69085097:69085224:+|CDS|ENSG00000144746|unk|FALSE|bound_elsewhere (ssRNA)
RNA: GGGAGUUCUACAGUCCGACGAUCGGGUUCCGAUCGCUUUGCCCGGCCGGACUUCAGGGACAUUUCCAAAUGGAACAACCGCGUAGUGAGCAACCUGCUCUAUUACCAGACCAACUACCUGGUGGUGGCUGCCAUGAUGAUUUCCAACAGAGGAUUGAGCAUCA
B13: chr19:39539560:39539696:-|CDS|ENSG00000176396|unk|FALSE|unique (ssRNA)
RNA: GGGAGUUCUACAGUCCGACGAUCCGGGAACGGAGGCCUGGCUGCGUUGCCCUAUCUCCGUCUCCGCCACCCACUUAGCGUUUUAGGCAUCAAUUACCAGCAGUUUCUCCGCCACUAUCUGGAAAAUUACCCGAUUGCUCCCGGCAACAGAGGAUUGAGCAUCA
B14: ENSG00000136451:be:win_4151|3pUTR|ENSG00000136451|bound_else_gene|NA|bound_elsewhere_windowed (ssRNA)
RNA: GGGAGUUCUACAGUCCGACGAUCUGUUGAAGGCACGACAGCCACUGCUCUACGAAAAGGCAGAGUACGUUUUUCCCUUCUGGUUGUAACCUGGUUGAGAGCUUCCCCUUUAUCAGAUUGGCAGCUAAACAGUUGUAUUAGAUACAACAGAGGAUUGAGCAUCA
B15: ENSG00000198589:be:win_6201|CDS|ENSG00000198589|bound_else_gene|NA|bound_elsewhere_windowed (ssRNA)
RNA: GGGAGUUCUACAGUCCGACGAUCUAGCCUGAGCACACCAGCUCAGCUUGUGGCCCCCUCUGUUGUAGUAAAGGGCACUCUUUCUGUCACCUCCUCCGAACUCUAUUUUGAGGUGGAUGAAGAGGAUCCUAACUUCAAAAAAAUCAACAGAGGAUUGAGCAUCA
B16: ENSG00000136451:be:win_801|CDS|ENSG00000136451|bound_else_gene|NA|bound_elsewhere_windowed (ssRNA)
RNA: GGGAGUUCUACAGUCCGACGAUCUGCUGCCUUUGCCACCAAAGACAGACUGCGGACACACAUGGUGCGCCAUGAAGGCAAGGUAUCAUGUAACAUCUGUGGGAAGCUCCUGAGUGCAGCAUACAUCACCAGCCACUUAAAGACCAACAGAGGAUUGAGCAUCA
B17: chr15:57953423:57955269:-|three_prime_utr|ENSG00000128918|control|control|control (ssRNA)
RNA: GGGAGUUCUACAGUCCGACGAUCGAAGGCCAAGAAGGAGGAUGAAGCCCAGCCUGCACGUCUGUCCCUCUCUGCUUUCUCUGUAGGGCCCAGCUCUCAGGAAUACAAAGUUGAGCCACGGUCCUUACUUAAAGAUUGAAAAGACAACAGAGGAUUGAGCAUCA
B18: chr13:44143149:44143917:-|three_prime_utr|ENSG00000139656|control|control|control (ssRNA)
RNA: GGGAGUUCUACAGUCCGACGAUCUCAGGCAAGACUCAGGACUGCUCUGGACAUUCAGAAGCUGAGUGUGCAAGUGUGCUGUGUAGUUCAAGGCCACCACCACUGAAGAGGCCAAGGACACCUUAGUAGGAAUUCUAACCUGGCCAACAGAGGAUUGAGCAUCA
B19: chr4:56448489:56448593:+|CDS|ENSG00000128050|unk|total|mutant (ssRNA)
RNA: GGGAGUUCUACAGUCCGACGAUCCCCACAGUGGUCUGAGGAACAGCUGAUUGCUGCAAAAUUUUGCUUUGCUGGACUUCUUACCGGCCAGACUGAAGUGGAUAUCAUGAGUCAUGCUACACAGGCUAUAUUUGAAAUACUGGACAACAGAGGAUUGAGCAUCA
B20: chr20:38750096:38750197:+|CDS|ENSG00000101442|unk|FALSE|unique (ssRNA)
RNA: GGGAGUUCUACAGUCCGACGAUCGCAAAUGAUGUCUGAGCUUCUUUUUGAGUGCUACGGGAUUCCCAAGGUUGCCUAUGGAAUAGACAGCCUCUUCAGCUUCUACCACAAUAAGCCAAAGAACUCGAUGUGCAGUGGGCUAAUCAACAGAGGAUUGAGCAUCA
B21: chr6:110632029:110632161:-|CDS|ENSG00000155111|control|control|control (ssRNA)
RNA: GGGAGUUCUACAGUCCGACGAUCCAUGGGUUUUGCCAGAUUAUUCAAUUCUCCUCUAAAGCCACUAGCAGAUUUGGAUCCAGUAGUUGUGACAUUUUGGUAUCGGGCUCCAGAACUUUUGCUUGGUGCAAGGCAUUAUACAAACAACAGAGGAUUGAGCAUCA
B22: ENSG00000070961:be:win_4651|3pUTR|ENSG00000070961|bound_else_gene|NA|bound_elsewhere_windowed (ssRNA)
RNA: GGGAGUUCUACAGUCCGACGAUCACAUGUUAGUUUAGUGAUGUCUUGGUGAACUGUGAGUGAACUGUAUUGAUUUUUCUAAUCUUUAGAGACCUUCACACAGCAUGAGGGCUGUUGGCAUUUUGAAAAAGGUUAAUAAGUAGACAACAGAGGAUUGAGCAUCA

Biological target: MSI1 full-length (mouse, UniProt Q61474 1-362)
Assay: nsRBNS (natural sequence RNA bind-n-seq); RBNS binding buffer (assumed for nsRBNS): 25 mM Tris pH 7.5, 150 mM KCl, 3 mM MgCl2, 0.01% Triton X-100, 500 ug/ml BSA, 20 U/ml SUPERase-In, 4 C; UNK is unkempt and MSI1 is Musashi-1; names of the RNAs are library labels; protein concentration not given here; high values mean tight binding

Sequence of UniProt Q61474 (Q61474 whole entry): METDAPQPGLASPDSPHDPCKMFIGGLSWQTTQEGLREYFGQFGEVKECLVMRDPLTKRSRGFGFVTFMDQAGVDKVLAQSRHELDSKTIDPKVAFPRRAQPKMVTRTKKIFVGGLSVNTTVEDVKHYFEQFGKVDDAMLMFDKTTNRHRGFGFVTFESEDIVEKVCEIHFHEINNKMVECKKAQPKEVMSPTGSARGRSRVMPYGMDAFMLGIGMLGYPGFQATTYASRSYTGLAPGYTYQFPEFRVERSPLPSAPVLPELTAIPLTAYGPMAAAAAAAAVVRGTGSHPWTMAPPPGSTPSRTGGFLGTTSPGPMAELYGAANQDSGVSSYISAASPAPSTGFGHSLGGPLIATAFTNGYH

Binder | binding signal [enrichment R]
B1 | 1.65
B2 | 1.47
B3 | 1.05
B4 | 2.79
B5 | 0.496
B6 | 0.283
B7 | 0.371
B8 | 0.409
B9 | 1.59
B10 | 0.732
B11 | 0.308
B12 | 0.369
B13 | 0.934
B14 | 0.778
B15 | 0.432
B16 | 0.36
B17 | 0.4
B18 | 0.524
B19 | 0.307
B20 | 0.313
B21 | 0.842
B22 | 28.3
